# Reference: the antibiotic and cytotoxicity screens of Wong et al. (2023)
# The other results are listed elsewhere or left out.
# Tests used:
# [1] = system: HSkMC (human skeletal muscle cells); experiment: cytotoxicity call (relative viability < 0.9); conditions: 10 µM
# [2] = system: HepG2; experiment: cytotoxicity call (relative viability < 0.9); conditions: 10 µM
# [3] = system: S. aureus RN4220; experiment: growth inhibition call (relative growth <= 0.2); conditions: 50 µM
SMILES,cytotoxicity call [1],cytotoxicity call [2],growth inhibition call [3]
C[C@@H]1CN([C@@H](C)CO)C(=O)c2cccc(NC(=O)Nc3ccc(F)cc3)c2O[C@@H]1CN(C)S(=O)(=O)c1cn(C)cn1,inactive,inactive,inactive
CCCNC(=O)N1[C@@H]2Cn3c(cccc3=O)[C@H]1[C@@H](C(=O)NCC(F)(F)F)[C@@H]2CO,inactive,inactive,inactive
CO[C@@H]1CN(C)C(=O)c2cc(NC(=O)c3cc(C)on3)ccc2OC[C@@H](C)N(C(=O)C2CCC2)C[C@H]1C,inactive,inactive,inactive
COc1ccccc1S(=O)(=O)N(C)C[C@H]1Oc2cc(Br)ccc2S(=O)(=O)N([C@@H](C)CO)C[C@H]1C,inactive,inactive,inactive
COC(=O)C(CC#Cc1ccc2c(c1)[C@]1(C(=O)N2)[C@H](c2ccc(O)cc2)N2[C@H](c3ccccc3)[C@H](c3ccccc3)OC(=O)[C@H]2[C@@H]1C(=O)NC[C@H](O)c1ccccc1)C(=O)OC,inactive,inactive,inactive
C[C@H]1CN([C@@H](C)CO)C(=O)c2cc(NC(=O)Nc3cccc4ccccc34)ccc2O[C@@H]1CN(C)Cc1ccc(C(=O)O)cc1,inactive,inactive,inactive
C[C@H]1CN([C@@H](C)CO)C(=O)Cc2cc(NC(=O)CCN3CCOCC3)ccc2O[C@@H]1CN(C)Cc1ccc(C(=O)Nc2ccccc2N)cc1,inactive,inactive,inactive
C[C@@H]1CN([C@@H](C)CO)C(=O)c2cccc(NC(=O)NC3CCCCC3)c2O[C@H]1CN(C)S(=O)(=O)c1cn(C)cn1,inactive,inactive,inactive
COc1ccc2c3c1OC1CC(O)C=CC31CCN(C)C2 (centres undefined),inactive,inactive,inactive
CO[C@@H]1CN(C)C(=O)c2ccc(NS(C)(=O)=O)cc2OC[C@@H](C)N(C(=O)CN(C)C)C[C@@H]1C,inactive,inactive,inactive
C[C@H](CO)N1C[C@H](C)[C@@H](CN(C)C(=O)c2ccncc2)OCCCC[C@H](C)Oc2ccc(NS(C)(=O)=O)cc2C1=O,inactive,inactive,inactive
O=C(C[C@H]1CC[C@@H]2[C@H](COC[C@@H](O)CN2C(=O)Nc2cccc(F)c2)O1)NCCCN1CCOCC1,inactive,inactive,inactive
C[C@@H]1CN([C@H](C)CO)C(=O)Cc2cc(NC(=O)C3CCCCC3)ccc2O[C@H]1CN(C)C(=O)Nc1ccc(C(F)(F)F)cc1,inactive,inactive,inactive
C=CC[C@H](CC(=O)NCCO)C(=O)N[C@H](COC(=O)[C@H](CC=C)CC(=O)OC(C)(C)C)Cc1ccccc1,inactive,inactive,inactive
COc1ccccc1CN1C(=O)c2ccccc2[C@@]2(Cc3ccccc3N(CC(C)C)C2=O)[C@@H]1c1ccc(CO)cc1,inactive,inactive,inactive
C[C@@H]1CN([C@H](C)CO)C(=O)Cc2cc(NC(=O)Cn3cnnn3)ccc2O[C@@H]1CN(C)Cc1ccc(C(=O)O)cc1,inactive,inactive,inactive
O=C(CN1CCOCC1)N[C@H]1CC[C@@H](CCn2cc(C3CC3)nn2)O[C@@H]1CO,inactive,inactive,inactive
CCCCCCCCCC(=O)O,inactive,inactive,inactive
COc1cccc(S(=O)(=O)N(C)C[C@@H]2Oc3ncc(C#Cc4ccccc4)cc3C(=O)N([C@H](C)CO)C[C@@H]2C)c1,inactive,inactive,inactive
C[C@H]1CN([C@@H](C)CO)C(=O)c2cc(C#Cc3ccccc3F)cnc2O[C@H]1CN(C)C(=O)Cc1cccnc1,inactive,inactive,inactive
Cc1sc(/N=C/c2ccc(Cl)c(Cl)c2)c(C#N)c1C,inactive,inactive,inactive
COc1cccc(S(=O)(=O)N2C[C@@H](O)COC[C@H]3O[C@@H](CC(=O)NCCCN4CCOCC4)CC[C@@H]32)c1,inactive,inactive,inactive
C[C@@H]1CN([C@@H](C)CO)C(=O)c2cc(C#CC3(O)CCCC3)cnc2O[C@H]1CN(C)C(=O)C1CCCCC1,inactive,inactive,inactive
CC(C)NC(=O)Nc1ccc2c(c1)C(=O)N([C@H](C)CO)C[C@H](C)[C@@H](CN(C)Cc1ccc3c(c1)OCO3)O2,inactive,inactive,inactive
OC[C@H]1O[C@H](OC[C@H]2O[C@@H](O)[C@H](O)[C@@H](O)[C@@H]2O)[C@H](O)[C@@H](O)[C@@H]1O,inactive,inactive,inactive
COc1ccc(NC(=O)N2CCCCN3[C@H](CN(C)C(C)=O)[C@H](c4ccc(C#Cc5ccccc5)cc4)[C@@H]3C2)cc1,active,active,inactive
Oc1cccc(-c2nc3ccc4ccccc4c3c3c2CCC3)c1,inactive,inactive,inactive
CC1C=CC=CC=CC=CC=CC=CC=CC(OC2OC(C)C(O)C(N)C2O)CC2OC(O)(CC(O)CC(O)C(O)CCC(O)CC(O)CC(=O)OC(C)C(C)C1O)CC(O)C2C(=O)O (centres undefined),inactive,inactive,inactive
